Data: the supplement of paper PMC10126150
Sequences with one replicate were seen in a single cluster, so their values are uncertain.

Tested on: ATP
Assay: switch fluorescence ratio, 500 uM ATP over buffer (Cy3 cluster intensity, sum of 5 cycles each) (fold (ratio)); higher = stronger signal-on switching upon ATP binding; sequences stand for … in TCGTCGGCAGCGTCAGATGTGTATAAGAGACAGTTTTTTTTTTTTTTTTTTTTTTTTT…TC
Conditions: aptamer strand: ATP DNA aptamer (quencher-CACCTGGGGGAGTATTGCGGAGGAAGG + anchor), 100 nM annealed; ATP concentration: 500 uM; one replicate
Procedure, shortened: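 Cy3-labelled switching-strand clusters on a modified Illumina MiSeq flow-cell were annealed to 100 nM quencher-labelled ATP aptamer and imaged first in selection buffer, then after 15 min with 500 uM ATP at 22 °C. NaOH stripping and re-annealing separated each of five buffer/ATP cycles, and clusters outside 100-1000 RFU were excluded. The fluorescence ratio sums target-cycle Cy3 intensity over buffer-cycle Cy3 intensity per cluster and averages it per switch-domain sequence.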
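Note: ATP exposure 15 min at 22 °C before imaging.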

Sequence | switch fluorescence ratio
GGGAGCGG | 0.963
TAGTTGTGGC | 0.988
CGATTCAATG | 1.13
AATTCAGAAC | 0.963
AGGGCTCAGC | 1.1
TCCGGGAGGT | 0.99
GTTTGCGAAA | 1
TCTCGGGGTT | 1.05
AGTGCTAGCA | 0.973
AGGTAATGG | 0.963
CCTTGGACCA | 0.972
TCAATTGCTA | 0.995
CCTGCTGACG | 1.19
GGGAGACAAT | 0.979
CTATCGGGGG | 1.04
ATACTAACCC | 1.2
TGGCCGCGGC | 0.911
TGAGCTTC | 1.07
GGAGTTGATG | 1.04
ATCAGTGGAT | 1
GTCGAGCTAG | 1
TCGATGGTAA | 0.97
TCTATCCTTT | 0.996
GCTGCATTAT | 1.19
ATAAATTGGT | 0.921
AAGCTTTTTG | 1.01

Sequence | switch fluorescence ratio
CGTGTCGACT | 0.955
GAAGTTGATC | 0.958
GCCACATGTG | 1
TCGGGACTTA | 1.01
TCGCAATTTG | 2.33
GGATTCGGCT | 1.08
CATTATTCGC | 1.01
GGGCCATGGG | 1.09
GTTAAATAGT | 0.961
AAAGAGATGT | 0.979
GAGCGGGACT | 1.41
ATGAATAAT | 1.02
ACGAGAGGGC | 1.07
ACAGGACCAC | 1.13
ATCCCAGTA | 1.02
TATAGCACGC | 1.06
AGTCAGCGTT | 1.01
CATACGTTCG | 1.02
TTACCCCTCG | 1.09
TGATAGCCCC | 1.07
AAACTAGCTC | 0.991
GAGGGATCGA | 0.936
TTAGGGACTT | 1.12
CCGGACCAGC | 1.58
CGCTTTCTGA | 1.01
TAGGGTTATT | 1.02

Sequence | switch fluorescence ratio
AAGGTTCTCG | 0.954
AGCCCAGGTT | 2.9
TATGTTTTAA | 0.985
TAGGGCGCG | 0.949
TCGACGTTCT | 1.04
TTTAGTGTTA | 0.984
ACCGTATTTT | 1.05
CGATAGTTCA | 0.982
AGTTGGGTAG | 1.01
ACCACGGAGC | 1.21
GGTTCGAGGA | 0.984
GCTTCAGTAC | 1.17
GTACTTACGG | 1.48
AAAAGATGAT | 1.02
AGACCGTTAA | 1.01
GTCATTTGTT | 1.06
ATCAGGATTA | 0.991
GATGTAATGG | 1.08
TGGTAGAATC | 1.01
GACTCGTGCA | 1.09
GCTGCGTTGG | 1
CGTAATCATT | 1.04
GAAGTGCGGC | 1.05
CTTGGAAAGA | 0.96
ACTATCATAC | 1.21
ACAGGATCGC | 0.978

Sequence | switch fluorescence ratio
AGAAAGGACC | 1.05
AGGCGAAGTA | 1.02
CCAAGCGAGC | 1.18
ACGCCATGCG | 1.02
TGATTGCTAG | 1.01
GGGGTGCCCT | 0.978
TATATAAAAA | 1.05
TACTGGGTTT | 1.01
AGGACAGGCT | 0.983
TCCCCGACTT | 1.05
GCTGTACTCG | 1.56
TCGCGAGGTA | 0.961
GTTCCCGGT | 1.02
GTCGTTTCCT | 1.01
TGTGAATGGA | 0.961
ACGGGATCTG | 0.971
CCTTTGGTAG | 0.968
TCAACGGCAC | 1.59
AAATGGCCGA | 1.02
ACGGAACCTT | 1.29
CTCGCTAAAT | 1.35
GTGGCACTTA | 1
GAAAGTGAGC | 0.968
ATGGGCCATA | 0.99
TGATGGATGG | 0.978
GGTATCATAT | 0.935

Sequence | switch fluorescence ratio
GCCCCAAACG | 0.998
AGGCCTGGGG | 0.957
ATCACCGATT | 0.997
AAAGGCACGT | 1.17
CACTCCATA | 1.09
TAAAAGTAAT | 0.965
TGCTTCTGAG | 1.03
GGGTAATGGA | 1.05
ACGATAACC | 1.26
TGGTAATTGT | 0.973
GCCTATGG | 1
ACTCCTGGGG | 1.31
CATCCCCGGT | 1.24
GGTTGGTATC | 0.957
ATGCCGATAT | 1.04
GATGGACCAC | 1.04
ATTAAGCCGT | 1.1
TGGGTGCCAG | 0.962
GAGACCGGCA | 1.02
TAGTTAAAAA | 0.992
TTACGTTAAG | 1.49
TCATCGATGG | 1.01
GTGTAAGCT | 0.974
ACATGATTT | 1.01
CCCTTGCCAC | 1.22
CCGGGGAGG | 1.05

Sequence | switch fluorescence ratio
TAATGCATC | 1.07
ACGGATGAC | 1.06
GTTGCGCTTT | 1.07
TATGTTGACT | 1.04
GCAGGACAAG | 1.01
TCCTTTCGGT | 1.01
CTTAGCTGCC | 1.15
CGACAGTT | 1.01
TAAATATGTT | 1.02
CCACTGGAAC | 1.11
GAGTAGCTCA | 1.05
GCAATTATAG | 1.09
CTGGACGCCA | 1.08
AGGAAGTGAC | 1.01
GATCTAGATT | 1.01
AGGAACACGA | 1.03
TCACACAGCA | 1.07
TTATGAGAAC | 1.02
TATCTAGTTT | 1
TCCACGTCCT | 1.01
AATCTCGCCG | 1.03
CGTAGAATAG | 1.06
TCCAGTTG | 1.1
TCGTAAGTAG | 0.971
